Results on 40 sequences are retold here after paper PMC12820563.

The other results are listed elsewhere or left out. The list includes weakly bound sequences.

The target in the assay is T1, MBP-FoxP3dN (UniProt Q99JB6).
T1 sequence: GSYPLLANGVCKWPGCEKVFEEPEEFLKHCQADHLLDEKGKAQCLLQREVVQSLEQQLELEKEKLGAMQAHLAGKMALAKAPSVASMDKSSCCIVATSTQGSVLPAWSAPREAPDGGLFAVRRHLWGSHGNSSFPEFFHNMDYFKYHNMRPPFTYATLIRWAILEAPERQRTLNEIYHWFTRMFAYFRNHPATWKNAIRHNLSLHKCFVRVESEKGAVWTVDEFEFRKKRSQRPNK
Briefly: PD-seq (MBP pull-down with sequencing). The settings on record: 20 mM Tris-HCl pH 7.5, 100 mM NaCl, 1.5 mM MgCl2, 0.4 uM protein, 0.1 uM dsDNA library, 30 min, room temperature, amylose pull-down; high values mean tight binding; double strand, one strand shown.
Consider “GATGATTGTTCTCCCAGCTGATGAATTAATCAAGTCGAGTAAACAAATTTTCCTAATCTTTCTGTTCAAGCGCCATCTAC”, for which the binding signal (RPM ratio (pull-down/input)) worked out at 0.258. For “GATGATTGTTCTCCCAGCTGATGAATTCCGTAGGTCGAGTAAACAAATTTTCCTAATCTTTCTGTTCAAGCGCCATCTAC”, the binding signal (RPM ratio (pull-down/input)) amounted to 0.424. Take “GATGATTGTTCTCCCAGCTGATGAATTCGACATATCGAGTAAACAAATTTTCCTAATCTTTCTGTTCAAGCGCCATCTAC”: the binding signal (RPM ratio (pull-down/input)) turned out to be 0.66. With “GATGATTGTTCTCCCAGCTGATGAATTATCGAGCTCGAGTAAACAAATTTTCCTAATCTTTCTGTTCAAGCGCCATCTAC”, the binding signal (RPM ratio (pull-down/input)) came to 0.268.

In the case of “GATGATTGTTCTCCCAGCTGATGAATTATGGATTTCGAGTAAACAAATTTTCCTAATCTTTCTGTTCAAGCGCCATCTAC”, the binding signal (RPM ratio (pull-down/input)) came to 0.452.

For the sequence “GATGATTGTTCTCCCAGCTGATGAATTTAACTGGTCGAGTAAACAAATTTTCCTAATCTTTCTGTTCAAGCGCCATCTAC”, the binding signal (RPM ratio (pull-down/input)) was 0.308.

Take “GATGATTGTTCTCCCAGCTGATGAATTAAAAGTATCGAGTAAACAAATTTTCCTAATCTTTCTGTTCAAGCGCCATCTAC”: the binding signal (RPM ratio (pull-down/input)) was determined as 0.407.

Regarding “GATGATTGTTCTCCCAGCTGATGAATTTTATTGCTCGAGTAAACAAATTTTCCTAATCTTTCTGTTCAAGCGCCATCTAC”, the binding signal (RPM ratio (pull-down/input)) stood at 2.06. In the case of “GATGATTGTTCTCCCAGCTGATGAATTCAAGTCGTCGAGTAAACAAATTTTCCTAATCTTTCTGTTCAAGCGCCATCTAC”, the binding signal (RPM ratio (pull-down/input)) is 0.342. In the case of “GATGATTGTTCTCCCAGCTGATGAATTATGCAGGTCGAGTAAACAAATTTTCCTAATCTTTCTGTTCAAGCGCCATCTAC” it was 1.53; in that of “GATGATTGTTCTCCCAGCTGATGAATTCCCTACCTCGAGTAAACAAATTTTCCTAATCTTTCTGTTCAAGCGCCATCTAC”, 0.251. “GATGATTGTTCTCCCAGCTGATGAATTTTTCCTATCGAGTAAACAAATTTTCCTAATCTTTCTGTTCAAGCGCCATCTAC”: the binding signal (RPM ratio (pull-down/input)) amounted to 0.232. Then “GATGATTGTTCTCCCAGCTGATGAATTTGTGTGCTCGAGTAAACAAATTTTCCTAATCTTTCTGTTCAAGCGCCATCTAC”, with 5.67. For the sequence “GATGATTGTTCTCCCAGCTGATGAATTGGGTGTATCGAGTAAACAAATTTTCCTAATCTTTCTGTTCAAGCGCCATCTAC”, the binding signal (RPM ratio (pull-down/input)) amounted to 1.62. “GATGATTGTTCTCCCAGCTGATGAATTGTGGGGATCGAGTAAACAAATTTTCCTAATCTTTCTGTTCAAGCGCCATCTAC”: the binding signal (RPM ratio (pull-down/input)) was 0.583. In the case of “GATGATTGTTCTCCCAGCTGATGAATTCGAATCGTCGAGTAAACAAATTTTCCTAATCTTTCTGTTCAAGCGCCATCTAC” it was 0.414. “GATGATTGTTCTCCCAGCTGATGAATTATTAGCCTCGAGTAAACAAATTTTCCTAATCTTTCTGTTCAAGCGCCATCTAC”: the binding signal (RPM ratio (pull-down/input)) was 0.614.

Regarding “GATGATTGTTCTCCCAGCTGATGAATTCCGATTCTCGAGTAAACAAATTTTCCTAATCTTTCTGTTCAAGCGCCATCTAC”, the binding signal (RPM ratio (pull-down/input)) worked out at 0.764. In the case of “GATGATTGTTCTCCCAGCTGATGAATTCACTCCATCGAGTAAACAAATTTTCCTAATCTTTCTGTTCAAGCGCCATCTAC”, the binding signal (RPM ratio (pull-down/input)) is 0.335. In the case of “GATGATTGTTCTCCCAGCTGATGAATTGACTCGTTCGAGTAAACAAATTTTCCTAATCTTTCTGTTCAAGCGCCATCTAC” it was 0.372. With “GATGATTGTTCTCCCAGCTGATGAATTTTACCAATCGAGTAAACAAATTTTCCTAATCTTTCTGTTCAAGCGCCATCTAC”, the binding signal (RPM ratio (pull-down/input)) stood at 0.295. Take “GATGATTGTTCTCCCAGCTGATGAATTTCACTTGTCGAGTAAACAAATTTTCCTAATCTTTCTGTTCAAGCGCCATCTAC”: the binding signal (RPM ratio (pull-down/input)) came to 0.637. Then “GATGATTGTTCTCCCAGCTGATGAATTTGACACGTCGAGTAAACAAATTTTCCTAATCTTTCTGTTCAAGCGCCATCTAC”, with 1.34; and “GATGATTGTTCTCCCAGCTGATGAATTGAGTAGATCGAGTAAACAAATTTTCCTAATCTTTCTGTTCAAGCGCCATCTAC”, with 0.386. Turning to “GATGATTGTTCTCCCAGCTGATGAATTACGGGACTCGAGTAAACAAATTTTCCTAATCTTTCTGTTCAAGCGCCATCTAC”, the binding signal (RPM ratio (pull-down/input)) amounted to 0.382. In the case of “GATGATTGTTCTCCCAGCTGATGAATTAAGGGGATCGAGTAAACAAATTTTCCTAATCTTTCTGTTCAAGCGCCATCTAC” it was 0.31; in that of “GATGATTGTTCTCCCAGCTGATGAATTGTAAGGCTCGAGTAAACAAATTTTCCTAATCTTTCTGTTCAAGCGCCATCTAC”, 0.367; in that of “GATGATTGTTCTCCCAGCTGATGAATTGGTGCCATCGAGTAAACAAATTTTCCTAATCTTTCTGTTCAAGCGCCATCTAC”, 2.34. For “GATGATTGTTCTCCCAGCTGATGAATTCAAGAAGTCGAGTAAACAAATTTTCCTAATCTTTCTGTTCAAGCGCCATCTAC”, the binding signal (RPM ratio (pull-down/input)) turned out to be 0.167. For “GATGATTGTTCTCCCAGCTGATGAATTAGGATCTTCGAGTAAACAAATTTTCCTAATCTTTCTGTTCAAGCGCCATCTAC”, the binding signal (RPM ratio (pull-down/input)) turned out to be 0.326. Turning to “GATGATTGTTCTCCCAGCTGATGAATTCGGCTTCTCGAGTAAACAAATTTTCCTAATCTTTCTGTTCAAGCGCCATCTAC”, the binding signal (RPM ratio (pull-down/input)) is 1.85. In the case of “GATGATTGTTCTCCCAGCTGATGAATTTGGGAATTCGAGTAAACAAATTTTCCTAATCTTTCTGTTCAAGCGCCATCTAC”, the binding signal (RPM ratio (pull-down/input)) amounted to 0.843. In the case of “GATGATTGTTCTCCCAGCTGATGAATTCGACTCGTCGAGTAAACAAATTTTCCTAATCTTTCTGTTCAAGCGCCATCTAC” it was 0.435; in that of “GATGATTGTTCTCCCAGCTGATGAATTTGACCAATCGAGTAAACAAATTTTCCTAATCTTTCTGTTCAAGCGCCATCTAC”, 0.253; in that of “GATGATTGTTCTCCCAGCTGATGAATTCTAGGCATCGAGTAAACAAATTTTCCTAATCTTTCTGTTCAAGCGCCATCTAC”, 0.591.

For the sequence “GATGATTGTTCTCCCAGCTGATGAATTGGCCGCTTCGAGTAAACAAATTTTCCTAATCTTTCTGTTCAAGCGCCATCTAC”, the binding signal (RPM ratio (pull-down/input)) was 0.415. Regarding “GATGATTGTTCTCCCAGCTGATGAATTGCACATTTCGAGTAAACAAATTTTCCTAATCTTTCTGTTCAAGCGCCATCTAC”, the binding signal (RPM ratio (pull-down/input)) was 1.41.

With “GATGATTGTTCTCCCAGCTGATGAATTGTGTACATCGAGTAAACAAATTTTCCTAATCTTTCTGTTCAAGCGCCATCTAC”, the binding signal (RPM ratio (pull-down/input)) stood at 3.98.

For the sequence “GATGATTGTTCTCCCAGCTGATGAATTACGGGTATCGAGTAAACAAATTTTCCTAATCTTTCTGTTCAAGCGCCATCTAC”, the binding signal (RPM ratio (pull-down/input)) came out at 0.8.

For the sequence “GATGATTGTTCTCCCAGCTGATGAATTCGACAAATCGAGTAAACAAATTTTCCTAATCTTTCTGTTCAAGCGCCATCTAC”, the binding signal (RPM ratio (pull-down/input)) was determined as 0.274.
